From ChEMBL document CHEMBL4888484, “Replenishing the malaria drug discovery pipeline: Screening and hit evaluation of the MMV Hit Generation Library 1 (HGL1) against asexual blood stage Plasmodium falciparum ,using a nano luciferase reporter read-out” (2022) come the findings set out here.

Molecules are shown by their SMILES. About 540 (0.36%) of roughly 150,000 compounds showed an effect of 50% or more. The list shows a part of the results.

The experiment has as its system Plasmodium falciparum. Put plainly: Primary screen in NF54 nanoGlo assay, in single point, at 2uM, 72h; a lower Z score goes with more inhibition. It is filed as functional, Erythrocyte. Particulars: timepoint 72 hour.
For `Cc1cc(C)c(CNC(=O)c2cc(Cl)c[nH]2)c(=O)[nH]1`, the % Inhibition (in general, the drop in the measured response relative to a control, in per cent) was -14% and the Z score came out at 2.42.
For the compound `CCc1nn(-c2ccccc2)c(N(C)C)c1CN(Cc1ccccc1)C(=O)c1ccc(F)cc1`, the “% Inhibition” value is 3% and the Z score is on record as -0.24.
The matching figures for `Fc1ccccc1C1(CNc2ncnc3oncc23)CC1`: -3% and 0.42.
`COCCN1C(=O)N[C@@](Cc2cccc(OC)c2)(C2CCN(Cc3cccc(Cl)c3)CC2)C1=O`: the “% Inhibition” value is given as -9% and the Z score is reported as 1.28.
The matching figures for `CCn1cnnc1CN(C)C(=O)c1cc(Cn2ccnc2C(C)C)[nH]n1`: 0% and 0.01.
For `COc1ccc(CCC(=O)N2CCCN(C(=O)CCn3cnc4ccccc4c3=O)CC2)cc1` the same measures were -10% and 0.97.
Take `OC[C@]1(O)CCCN(Cc2ccccc2OCCCN2CCOCC2)C1`: the “% Inhibition” value is -12% and the Z score came to 1.9.
In the case of `Cc1ccoc1C(=O)NC[C@H]1CCN(Cc2ccc3ccccc3n2)C1`, the “% Inhibition” value was -13% and the Z score came out at 1.76.
For `Cc1cccc(C(=O)N2C(C(=O)N(C)C)C[C@@H]3OCC[C@@H]32)n1` (stereo partly drawn) the same measures were 4% and -0.68.
The matching figures for `CC1CC(C(=O)Nc2nc3c(s2)CC[C@H](C(=O)O)C3)C1` (stereo partly drawn): -15% and 1.56.
The matching figures for `Cc1cc(C)n(-c2cncc(NC3CCN(CC(F)F)CC3)n2)n1`: -5% and 0.6.
In the case of `COc1ccc(-c2nc(NCc3ccc(Cn4cccn4)cc3)[nH]c(=O)c2C#N)cc1`, the “% Inhibition” value was 5% and the Z score is -0.82.
For `Cc1cc(C#N)c(N2C[C@@H](CN3CCCCC3)[C@@H](CO)C2)nc1C` the same measures were -2% and 0.27.
For `CO[C@H]1CCN(c2ncnc(C)c2F)CC1(C)C` the same measures were -6% and 0.76.
As for `Cc1nc[nH]c1CN1C[C@H]2CC[C@@H](C1)N(C(=O)c1ccc(C#N)nc1)C2`, the “% Inhibition” value was -6% and the Z score is 1.15.
As for `OCc1cc(C(F)(F)F)ccc1-c1cnc2c(c1)CCCO2`, the “% Inhibition” value was -4% and the Z score was found to be 0.46.
For `COc1ccc(C(=O)NC(=O)NC2(C(Cl)(Cl)Cl)OCCO2)cc1` the same measures were 14% and -1.9.
With `CC(C)(C)OC(=O)N[C@@H](C(=O)N1CCCOCC1)c1cscn1`, the “% Inhibition” value was -6% and the Z score turned out to be 0.81.
The matching figures for `Cc1cccnc1CC(=O)NCC[C@H]1CCCOC1`: 6% and -0.87.
For `O=c1cnc2ccccc2n1CCOc1ccc(F)cc1` the same measures were -1% and 0.1.
Turning to `O=C1CC[C@]2(C(=O)NCCN3CCOCC3)CCCC=C2N1Cc1ccccc1`, the “% Inhibition” value is on record as -9% and the Z score was determined as 0.84.
The matching figures for `Cc1ccc(-n2cc(-c3ccccc3)nc2NC(=O)CN(C[C@H]2CCCO2)C(=O)c2ccccc2)cc1F`: -3% and 0.54.
For `CC(C)C(CNC(=O)N1CCN(C)C(=O)C1)C(C)C` the same measures were -12% and 1.85.
For `CC(=O)Nc1c(-c2ccccn2)nsc1C(=O)N[C@@H](C)c1ccccc1` the same measures were 0% and 0.08.
As to `COc1ccccc1Cc1nnc2n1CCS(=O)(=O)CC2`, the “% Inhibition” value is on record as -7% and the Z score turned out to be 0.79.
For `CC(C)CN(CC(N)=O)c1ccnc(C(C)(C)C)n1` the same measures were -13% and 1.49.
For `CC(C)(C)C(=O)Nc1cc(Br)c(O)c(Br)c1` the same measures were 30% and 0.07.
The matching figures for `Cc1cccn2cc(C(=O)NCCCN3CCOCC3)nc12`: -5% and 0.72.
As for `C[C@H](OC1CCCCCC1)C(=O)NCc1nncn1C`, the “% Inhibition” value is -7% and the Z score was 0.75.
The matching figures for `CN(C)C(=O)CCc1ccc(CC2CCN(Cc3cccc4[nH]ccc34)CC2)cc1`: -17% and 2.22.
For `O=C(CCc1ccc2c(c1)OCCO2)NC1CC1` the same measures were -4% and 0.61.
For `Cc1cnc(C(=O)N(C[C@H]2CCCO2)C2CCC(C)CC2)cn1` (stereo partly drawn) the same measures were 0% and 0.08.
For `Cc1ncoc1C(=O)N1CCCC[C@H]1c1nc2ccccc2o1`, the “% Inhibition” value was 1% and the Z score is listed as -0.1.
For `CC(C)(C)C(=O)NC[C@H](O)c1c(Cl)cccc1Cl` the same measures were 2% and -0.4.
On to `C[C@@H](Cc1ccc(O)cc1)N1CCC(CCC(=O)NCc2cccnc2)CC1`, for which the “% Inhibition” value was -8% and the Z score worked out at 0.71.
For `CCC=CCCn1c(=O)c(Br)cn(C)c1=O` the same measures were -9% and 1.39.
For `Cc1nn(C)cc1C(=O)N1CCCc2ccccc21` the same measures were -18% and 2.07.
The matching figures for `COc1ncccc1NC(=O)N1CCC[C@H]1c1nc(-c2ccccc2)c(C(C)C)o1`: -3% and 0.42.
Consider `O=C(c1cc(O)c(OCc2ccccc2Cl)cn1)N1CCc2ccccc2C1`, for which the “% Inhibition” value is 3% and the Z score is recorded as -0.37.
In the case of `CCC(C)C1CN(Cc2ccc(C)nc2)CCN1CC(=O)Nc1ccc(OC)c(OC)c1` (stereo not drawn), the “% Inhibition” value is listed as -7% and the Z score is given as 0.96.
For `C[C@H](CNC(=O)N1CCC(O)(CO)CC1)Cc1cccc2ccccc12` the same measures were 4% and -0.79.
The matching figures for `C(=Cc1ccccc1)CN1CCC[C@H](Cn2cncn2)C1`: -2% and 0.29.
Take `Cc1ccc([C@H]2CN(C(=O)c3c[nH]nc3-c3ccccc3)C[C@@H]2N(C)C)cc1`: the “% Inhibition” value is listed as -14% and the Z score was determined as 1.58.
The matching figures for `c1cc2c(cc1CN1CCN(c3nnc(C4CC4)s3)CC1)CCO2`: -10% and 0.87.
In the case of `Cc1ccc(C=CCC(=O)N[C@@H](C#N)C(C)C)cc1`, the “% Inhibition” value is -3% and the Z score turned out to be 0.53.
The matching figures for `O=C(CCN1C[C@H]2CC[C@H]1C2)NCc1cccnc1Oc1ccc(F)c(F)c1`: -21% and 2.37.
As to `C#CCNC(=O)NCCOCc1cccc(Cl)c1`, the “% Inhibition” value is given as -13% and the Z score amounted to 2.04.
The matching figures for `O=C1NCCN1CC1CCN(C(=O)c2cc3ccncc3s2)CC1`: -3% and 0.53.
With `Cc1nc2ncccn2c1-c1csc(N)n1`, the “% Inhibition” value was -14% and the Z score is 1.36.
The matching figures for `CCOC(=O)C1CCN(c2cc(C)nc3nc(-c4ccccc4)nn23)CC1`: -4% and 0.8.
With `COCc1nc(C)cc(NCc2nc(C)cc(=O)[nH]2)n1`, the “% Inhibition” value is 4% and the Z score is given as -0.81.
The matching figures for `Cc1c[nH]c(CN2CCC[C@@](O)(CO)C2)c(C)c1=O`: 10% and -1.38.
For `O=C(c1ccc2nncn2c1)N1CCOc2c(Cl)cccc21` the same measures were 29% and -3.29.
For `CC(C)c1ccc(C2c3[nH]c4ccccc4c3C[C@H]3C(=O)N(C4CCN(Cc5ccccc5)CC4)CC(=O)N23)cc1` (stereo partly drawn) the same measures were -3% and 0.37.
Consider `CC(C)c1noc(-c2ccnc(N3CC[C@@H](C(F)(F)F)C4(CCC4)C3)c2)n1`, for which the “% Inhibition” value is listed as -16% and the Z score amounted to 2.04.
Turning to `CC(=O)N1c2ccccc2C(=O)[C@@H]1N1CCN(c2ccccc2)CC1`, the “% Inhibition” value is given as -13% and the Z score is on record as 1.77.
The matching figures for `Cc1nc2ccc(F)cc2c(N2CCC(c3nncn3C)CC2)c1C`: 0% and -0.03.
Regarding `Cc1ccc(S(=O)(=O)N2CCC[C@H](Cn3c(C4CC4)nc4cccnc43)C2)cc1`, the “% Inhibition” value is reported as -13% and the Z score was 1.93.
The matching figures for `CC(C)(C)OC(=O)N1CCC1CN1CCCC(c2nnc(N)o2)C1` (stereo not drawn): 32% and -3.65.
For `CS(=O)(=O)N(CC(N)=O)c1cccc(Br)c1`, the “% Inhibition” value was -1% and the Z score stood at 0.06.
The matching figures for `COc1ccccc1C(=O)N(Cc1cccs1)c1cccc(Cl)c1`: 13% and -1.53.
For `COCCOc1cc(-c2noc([C@@H]3CCCN3CC(C)C)n2)ccn1` the same measures were 15% and -1.78.
For `O=C(Cn1cnc2ccccc21)N1CCC[C@H](Oc2ccncn2)C1` the same measures were 7% and -1.02.
Turning to `Oc1nc2cc(Cl)c(Cl)cc2nc1-c1ncc(C(F)(F)F)cc1Cl`, the “% Inhibition” value is on record as -8% and the Z score is 1.07.
The matching figures for `Cc1cc(C[C@H](CC(=O)c2ccccc2)c2ccccc2)on1`: 5% and -0.56.
For `CC[C@@H](C(=O)NC(C)(C)C)N(C)Cc1cccc(O)c1` the same measures were -11% and 1.21.
The matching figures for `CC[C@H]1[C@H](NC2CCN(Cc3ccccc3)CC2)[C@H]2CCO[C@H]21`: -2% and 0.34.
As for `O=C(c1cccnc1)N1CCC2(CC1)NCCc1c2[nH]c2ccccc12`, the “% Inhibition” value was -15% and the Z score amounted to 1.99.
Take `CC(C)N(C)C(=O)CN1CCC[C@H](N2CCCCCC2)C1`: the “% Inhibition” value is given as -13% and the Z score is recorded as 1.25.
For `Cc1nc(-c2ccc(N3CCN(C(=O)c4ccco4)CC3)nc2)sc1C` the same measures were 12% and -2.1.
On to `O=C(Cc1ccsc1)N1CCN(C(=O)C2CCC2)[C@H]2CS(=O)(=O)C[C@H]21`, for which the “% Inhibition” value was -9% and the Z score is 1.74.
`Cc1ccc(CNc2ccc(C(=O)NCc3cccc(F)c3)cc2S(=O)(=O)N2CCOCC2)cc1`: the “% Inhibition” value is listed as -13% and the Z score was found to be 2.5.
`COc1nc(OC)nc(-c2cccc(-n3cccn3)c2)n1`: the “% Inhibition” value was -8% and the Z score was determined as 1.23.
The matching figures for `COc1cccc(CNc2cccc(Cn3nc(C)nc3C)c2)n1`: 1% and -0.11.
The matching figures for `Cc1occc1C(=O)Nc1ccc(C(=O)N2CCCCC2)c(Cl)c1`: 7% and -1.25.
Consider `Cc1ccnc2ccc(C(=O)N3CC(S(=O)(=O)CC(C)C)C3)cc12`, for which the “% Inhibition” value is given as -12% and the Z score is 1.59.
The matching figures for `O=C(O)Cn1ccc([C@H]2CCCN(Cc3ccc(Cl)c(Cl)c3)C2)n1`: -6% and 1.17.
For `Cc1ccc(CNC(=O)NCC2CCC(O)C2)s1` (stereo not drawn) the same measures were -9% and 0.94.
Consider `O=C([C@H]1CCOC1)N1CCC(Cc2ccc(COc3ccncc3)cc2)CC1`, for which the “% Inhibition” value is -14% and the Z score is reported as 2.66.
On to `CC(C)NC(=O)c1cccnc1Oc1cccc(NS(=O)(=O)c2ccc(F)cc2)c1`, for which the “% Inhibition” value is reported as -2% and the Z score worked out at 0.41.
For `O=C(NCCCNc1ccccc1)Nc1ccncc1F` the same measures were -4% and 0.83.
For `O=C(Nc1ccc2c(c1)C(O)=Nc1cccnc1O2)c1cccc(F)c1` the same measures were 15% and -1.61.
The matching figures for `Fc1ccc(C2CCCC2NCCCn2ccnc2)cc1` (stereo not drawn): -6% and 0.53.
On to `CCn1ncnc1[C@H](C)NC(=O)c1ccc(CCC(C)(C)O)cc1`, for which the “% Inhibition” value is reported as 2% and the Z score is -0.31.
